# Values joined by “and” are separate entries in the source; they are usually repeats but may differ in a detail not shown here. Equal entries are not always repeated. In all, about 390,000 compounds went through this assay and about 1,400 (0.36%) were called active. The shares of active, inactive and inconclusive entries below differ from those in the screen. Calls come from the whole dose curve; as a rule, active = well fitted inhibition curve with a large enough effect; inconclusive = small, poorly fitted or top-dose-only effect; inactive = no such curve, though single readings can be large or run the other way. A potency beside an inconclusive call is a rough fit, not a confirmed value.
# Molecular target: Flap endonuclease 1 (Homo sapiens) (UniProt P39748)
# Chain of UniProt P39748 (P39748 whole entry, looked up): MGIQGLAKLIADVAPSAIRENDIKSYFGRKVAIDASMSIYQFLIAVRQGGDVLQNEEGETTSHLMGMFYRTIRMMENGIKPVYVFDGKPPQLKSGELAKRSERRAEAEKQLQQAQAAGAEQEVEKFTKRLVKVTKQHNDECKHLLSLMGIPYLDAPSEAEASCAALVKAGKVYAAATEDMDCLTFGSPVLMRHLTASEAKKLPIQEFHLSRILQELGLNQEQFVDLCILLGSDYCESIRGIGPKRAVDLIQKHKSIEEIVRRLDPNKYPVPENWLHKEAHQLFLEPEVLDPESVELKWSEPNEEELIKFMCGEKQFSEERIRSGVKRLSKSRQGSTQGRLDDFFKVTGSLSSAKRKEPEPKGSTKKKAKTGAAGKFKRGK
# Experiment: qHTS Assay for the Inhibitors of Human Flap endonuclease 1 (FEN1). Note: nearly all actives have a fitted effect of over 65% in size.
# Conditions: Recombinant FEN1 flap cleavage, fluorescence, 15 min; series mostly up to 114 µM; activity change, negative = inhibition: at the top concentration
# In short: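 In this screen, 50 nM flap DNA substrate was added to 10 nM FEN1 pretreated with compound for 15 min at room temperature; cleavage was followed with reads at 0 and 15 min, and Hill fitting gave concentration–response parameters.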
# % is set by controls: 0 for no effect and ±100 for the full control effect; potency is the fitted concentration of half-maximal effect; tags give direction and shape of the fitted curve.
Compound,"activity change, negative = inhibition",Potency
C=CCN1C(=O)/C(=C\c2ccc(N3CCOCC3)o2)C(=O)NC1=S,inactive: 12%,
CN(c1ccc(OCC(=O)N2CCN(C/C=C/c3ccccc3)CC2)cc1)S(=O)(=O)c1cccs1,,"inconclusive: 79.4 µM [inhibitor, partial curve, poor fit]"
CN[C@H](CC(C)C)C(=O)N[C@H]1C(=O)N[C@@H](CC(N)=O)C(=O)N[C@@H]2C(=O)N[C@H]3C(=O)N[C@H](C(=O)N[C@H](C(=O)O)c4cc(O)cc(O)c4-c4cc3ccc4O)[C@H](O)c3ccc(c(Cl)c3)Oc3cc2cc(c3O[C@@H]2O[C@H](CO)[C@@H](O)[C@H](O)[C@@H]2O[C@H]2C[C@](C)(N)[C@H](O)[C@H](C)O2)Oc2ccc(cc2Cl)[C@H]1O,,"inconclusive: 5.97 µM [inhibitor, single point]"
CCN1C(=O)NC(=O)/C(=C/c2cc(C)n(-c3sc(C)c(C)c3C#N)c2C)C1=O,,"inconclusive: 89.1 µM [inhibitor, partial curve, poor fit]"
COc1ccc(CCC(=O)N2CCC3(CC2)OCCO3)cc1,inactive: -2.35%,
O=C(O)CC1CC(c2ccccc2)=NO1 (centres undefined),,"inconclusive: 8.44 µM [inhibitor, single point]"
O=[N+]([O-])c1ccc(N2CCCNCC2)c2ncccc12,,"inconclusive: 28.2 µM [inhibitor, partial curve, poor fit]"
CCCN1CCO[C@@H]2c3cc(O)ccc3OC[C@H]21,,"inconclusive: 37.7 µM [inhibitor, partial curve, poor fit]"
O=C1NC(=O)C(=Cc2ccc(OCCOc3ccc([N+](=O)[O-])cc3)cc2)C(=O)N1,,"inconclusive: 89.1 µM [inhibitor, partial curve, poor fit]"
COc1ccc(CCNC(=O)c2c(N)n(CCN3CCOCC3)c3nc4ccccc4nc23)cc1OC,,"inconclusive: 79.4 µM [inhibitor, single point]"
Cc1ccc(/C=C2\C(=O)NC(=O)N(CCc3ccc(F)cc3)C2=O)o1,,"inconclusive: 22.4 µM [inhibitor, full curve, poor fit]"
O=C(O)Cn1cc(/C=C2\C(=O)NC(=O)N(Cc3ccco3)C2=O)c2ccccc21,,active: 79.4 µM
Brc1c(NC2=NCCN2)ccc2nccnc12,,"inconclusive: 9.47 µM [inhibitor, partial curve]"
O=C(NC1CN2CCC1CC2)c1ccc(-c2ccc([N+](=O)[O-])cc2)o1 (centres undefined),,"inconclusive: 44.7 µM [inhibitor, partial curve, poor fit]"
COc1ccc2cc1Oc1ccc(cc1)C[C@H]1c3cc(c(OC)cc3CCN1C)Oc1c(OC)c(OC)cc3c1[C@H](C2)N(C)CC3,,"inconclusive: 89.1 µM [inhibitor, partial curve, poor fit]"
O=C(O)c1cc[c]([Hg][Cl])cc1,,active: 25.1 µM
COc1ccc(OC)c(N=Cc2c(O)[nH]c(=O)[nH]c2=O)c1,,"inconclusive: 70.8 µM [inhibitor, partial curve, poor fit]"

Compound,"activity change, negative = inhibition",Potency
COc1ccc(Nc2nc(N3CCN(C)CC3)nc3ccccc23)c(OC)c1,,"inconclusive: 31.6 µM [inhibitor, partial curve, poor fit]"
C[C@]12CC[C@@H]3c4cc(O)c(O)cc4CC[C@H]3[C@@H]1CC[C@@H]2O,,"inconclusive: 89.1 µM [inhibitor, single point]"
CCCNC(=O)c1cnn2c(C)c(Cc3c(C)cc(C)cc3C)c(C)nc12,,"inconclusive: 50.1 µM [inhibitor, partial curve, poor fit]"
COC(=O)C1=C(c2ccc(OC(F)(F)F)cc2)C[C@@H]2CC[C@H]1N2C(=O)NCCOc1ccccc1Cl,,"inconclusive: 50.1 µM [inhibitor, partial curve, poor fit]"
Cc1cc(OCC(=O)NCc2ccncc2)c2c3c(c(=O)oc2c1)CCCC3,,"inconclusive: 44.7 µM [inhibitor, partial curve, poor fit]"
CN(C)C(CNC(=O)Cc1ccc(Br)cc1)c1ccccc1 (centres undefined),inactive: -5.73%,
CC(=O)c1c(O)c(C)c(O)c(Cc2c(O)c3c(c(C(=O)/C=C/c4ccccc4)c2O)OC(C)(C)C=C3)c1O,,"inconclusive: 79.4 µM [inhibitor, partial curve] and inconclusive: 26.7 µM [inhibitor, single point]"
Cc1cc(/C=C2\C(=O)NC(=O)N(c3cccc(F)c3)C2=O)c(C)n1-c1cc(C(=O)O)cc(C(=O)O)c1,,"inconclusive: 28.2 µM [inhibitor, partial curve, poor fit]"
O=c1[nH]c(O)c(/C=C2/C=CC(c3cc(Cl)ccc3Cl)=N2)c(=O)[nH]1,,"inconclusive: 56.2 µM [inhibitor, partial curve, poor fit]"
Cc1cccc(-n2c(O)c(/C=N/Nc3nc4c(c(=O)n(C)c(=O)n4C)n3C)c(=O)[nH]c2=S)c1,,"inconclusive: 89.1 µM [inhibitor, partial curve, poor fit]"
CN1C(=O)C(=Cc2ccc(N3CCCCCC3)cc2)C(=O)N(C)C1=O,,"inconclusive: 89.1 µM [inhibitor, single point]"
COc1ccc(C(c2ccc(OC)cc2)C(Cl)(Cl)Cl)cc1,,"inconclusive: 100 µM [inhibitor, partial curve, poor fit]"
Cc1cc(/C=C2\C(=O)NC(=O)N(c3ccc(Cl)cc3)C2=O)c(C)n1-c1sc2c(c1C#N)CCCC2,,"inconclusive: 39.8 µM [inhibitor, single point]"
O=C1C=CC(=O)C=C1,,"inconclusive: 25.1 µM [inhibitor, single point]"
CN(C)c1ccc(/C=C/C=C2/C(=O)NC(=O)N(c3ccccc3)C2=O)cc1,,"inconclusive: 10 µM [inhibitor, full curve, poor fit]"
CCN(CC)C(=O)c1ccc2c(c1)C1C=CCC1C(C(=O)O)N2 (centres undefined),,"inconclusive: 15.8 µM [inhibitor, full curve, poor fit]"
O=C(c1ccccc1F)c1cn(Cc2ccc(F)cc2)c2ccccc12,,"inconclusive: 89.1 µM [inhibitor, partial curve, poor fit]"

# Reference: PubChem BioAssay AID588795 (National Center for Advancing Translational Sciences (NCATS), 2011)
